In all, about 310,000 compounds went through this assay and about 2,200 (0.71%) showed an effect of 50% or more. Effects have a minus sign here. The list shows a part of the results.
target: human ether-à-go-go-related gene (hERG) potassium channel (human, UniProt Q12809); experiment: primary screen, population patch clamp on CHO cells stably expressing hERG
Sequence (Q12809 whole entry, looked up): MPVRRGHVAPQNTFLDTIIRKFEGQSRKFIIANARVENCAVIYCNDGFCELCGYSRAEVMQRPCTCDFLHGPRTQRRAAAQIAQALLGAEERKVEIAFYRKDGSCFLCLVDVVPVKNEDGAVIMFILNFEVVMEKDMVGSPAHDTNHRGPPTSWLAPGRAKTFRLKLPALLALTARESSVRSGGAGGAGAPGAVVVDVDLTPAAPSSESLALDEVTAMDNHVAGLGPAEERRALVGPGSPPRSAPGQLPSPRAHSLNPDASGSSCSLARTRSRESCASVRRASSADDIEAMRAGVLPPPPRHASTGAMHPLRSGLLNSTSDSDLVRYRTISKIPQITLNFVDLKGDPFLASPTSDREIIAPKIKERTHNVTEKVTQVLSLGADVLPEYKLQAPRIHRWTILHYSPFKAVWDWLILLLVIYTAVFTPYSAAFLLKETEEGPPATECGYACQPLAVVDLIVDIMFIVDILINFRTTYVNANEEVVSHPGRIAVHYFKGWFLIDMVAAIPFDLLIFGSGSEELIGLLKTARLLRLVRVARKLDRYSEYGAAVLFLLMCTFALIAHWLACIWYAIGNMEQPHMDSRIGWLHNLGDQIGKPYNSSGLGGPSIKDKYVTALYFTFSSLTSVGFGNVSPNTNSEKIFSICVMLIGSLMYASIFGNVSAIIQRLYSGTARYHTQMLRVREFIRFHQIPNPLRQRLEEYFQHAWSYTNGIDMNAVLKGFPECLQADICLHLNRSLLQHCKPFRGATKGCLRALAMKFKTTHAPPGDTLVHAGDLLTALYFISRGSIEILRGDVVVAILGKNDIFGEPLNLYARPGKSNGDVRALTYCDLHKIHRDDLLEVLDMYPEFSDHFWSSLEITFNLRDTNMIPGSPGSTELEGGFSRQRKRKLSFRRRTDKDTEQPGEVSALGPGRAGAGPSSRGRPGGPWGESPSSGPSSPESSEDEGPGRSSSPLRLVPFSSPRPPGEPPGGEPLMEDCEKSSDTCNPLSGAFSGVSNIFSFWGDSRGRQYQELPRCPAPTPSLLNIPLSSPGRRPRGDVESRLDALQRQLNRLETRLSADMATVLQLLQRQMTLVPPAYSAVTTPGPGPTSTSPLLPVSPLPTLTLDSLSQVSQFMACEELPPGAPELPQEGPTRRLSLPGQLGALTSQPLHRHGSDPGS

| SMILES | hERG current change (%, negative = inhibition) at 1uM [%] |
| --- | --- |
| COc1ccc(CCNCC(=O)Nc2ccc(C(=O)N3CCCCC3)cc2)cc1.O=C(O)C(=O)O | 10.2 |
| Cc1c(Cc2ccccc2)c(=O)oc2c(C)c(OCC(=O)Nc3ccc(C#N)cc3)ccc12 | 0.215 |
| COc1cccc(NC(=S)N2CCN(c3ccccn3)CC2)c1 | 9.77 |
| Cc1nc(-c2ccc(NC(=O)c3cccs3)cc2)cs1 | 4.47 |
| O=C(Cn1ccc2cc(S(=O)(=O)N3CCCCC3)ccc21)NCc1ccccc1F | 11.9 |
| CCn1nc(NS(=O)(=O)c2ccccc2)c2cc3cc(C)ccc3nc21 | 8.55 |
| O=C(COC(=O)c1ccccc1F)Nc1cccnc1Cl | 7.08 |
| O=C(CN1CCCC1)Nc1ccccc1C(=O)c1ccccc1 | 10.5 |
| COc1ccc(C(=O)Nc2ccc(Cl)cc2F)cc1S(=O)(=O)N1CCCC1 | -13.2 |
| CCN(CC)CC(=O)Nc1ccc(-c2nc3cc(NC(=O)CN(CC)CC)ccc3o2)cc1 | -7.15 |
| CCC(C)c1ccc(NC(=O)C2=CC=CN3CCS(=O)(=O)N=C23)cc1 (centres unmarked) | -0.58 |
| N#Cc1ccccc1Oc1ccccc1C=O | 7.22 |
| CCOC(=O)C1=C(C)N(C)C(=O)C1CC(=O)O (centres unmarked) | 13.8 |
| Cc1ccc(NC(=O)CSc2nnc(NC(=O)C(C)C)s2)c(C)c1 | 11.7 |
| COC(=O)C1=C(c2cccc(OCc3ccccc3)c2)C[C@@H]2CC[C@H]1N2C(=O)NCCOc1ccccc1Cl | 7.9 |
| Cc1noc(C)c1S(=O)(=O)N(C)Cc1ccccc1 | 22.6 |
| Cc1ccc(/C=N\NC(=O)C2COc3cc4ccccc4cc3O2)o1 (centres unmarked) | 7.63 |
| NC1=NC(c2cccc(O)c2)n2c(nc3ccccc32)N1 (centres unmarked) | 12.7 |
| O=C(N/N=C/c1cc([N+](=O)[O-])cc(Br)c1O)C12CC3CCC(CC(C3)C1)C2 | 10.6 |
| COc1ccccc1-c1nc(-c2ccncc2)no1 | 15.1 |
| CO/N=C/c1ccc(OC)c(Oc2nc(OC)cc(OC)n2)c1 | 16.4 |
| O=c1[nH]cnc2c1sc(=S)n2-c1ccccc1 | 1.57 |

| SMILES | hERG current change (%, negative = inhibition) at 1uM [%] |
| --- | --- |
| Cc1cc(=O)c(C(=O)Nc2cccc(N3CCCC3=O)c2)nn1-c1ccccc1F | -3.5 |
| CN(C(=S)NCCN1CCOCC1)C(c1ccccc1)c1ccccc1 | 11.2 |
| O=C(Nc1ccccc1)OCCOc1ccc(Br)cc1 | 11.2 |
| O=C1C2C3C=CC(C3)C2C(=O)N1CC1CCCO1 (centres unmarked) | 16.6 |
| CCC(=O)Nc1nc(C)c(C(=O)N2CCCCC2)s1 | 12.8 |
| O=C(Nc1ccccc1)Nn1cnnc1 | 12.2 |
| O=C(COc1ccc(Cl)cc1Cl)Nc1ccc2nc3n(c(=O)c2c1)CCCC3 | 3.53 |
| Cn1ccnc1SCc1cn2ccccc2n1 | 13.4 |
| COc1cc(C(=O)NCCSc2ccc(F)cc2)cc(OC)c1OC | 8.13 |
| Cc1cc(OCC(=O)N2CCC(O)(c3ccc(Cl)cc3)CC2)c2c(C)cc(=O)oc2c1 | 24.3 |
| CC(C)n1nnnc1-c1cccc(Cl)c1 | 0.0536 |
| Cc1ccc(S(=O)(=O)NCCC(=O)NC2CCCCC2C)cc1 (centres unmarked) | 10.9 |
| CCCCn1c(=O)c(C(=O)Nc2ccccc2S(N)(=O)=O)c(O)c2ccccc21 | 1.64 |
| COc1ccccc1NC(=O)CN(Cc1ccco1)C(=O)c1cccs1 | 6.65 |
| COc1ccc(C(=O)CN2C(=O)NC3(CCCc4ccccc43)C2=O)cc1OC (centres unmarked) | 7.65 |
| O=C(CSCc1ccccc1)Nc1cccc(C(=O)Nc2ccc(C(=O)O)cc2)c1 | 6.74 |
| CCN(CCCNC(=O)COc1cc(=O)n(CC)c2ccccc12)c1ccccc1 | 0.51 |
| COc1ccc(C2C(C(=O)c3ccc(C)o3)=C(O)C(=O)N2Cc2cccnc2)cc1OC (centres unmarked) | 13.6 |
| O=C(O)c1cc(S(=O)(=O)Nc2ccc3c(c2)OCCO3)c(Cl)cc1Cl | 7.54 |
| Cc1ccc(C(=O)NCc2nnc(SCC(=O)NC(C)c3ccccc3)n2C)cc1 (centres unmarked) | 11.4 |
| CCSc1nc2c(c(=O)[nH]1)C(c1cccnc1)C(C(=O)OC)=C(C)N2 (centres unmarked) | -0.491 |
| COc1cc(NC(=S)N2CCCC2)cc(OC)c1 | 15 |

Reference: publication PMC4336329 (PLoS ONE, 2015)
